Measured values from PubChem BioAssay AID588855 (National Center for Advancing Translational Sciences (NCATS), 2011).
About 5,000 (1.2%) of roughly 410,000 compounds were called active. The shares of active, inactive and inconclusive entries below differ from those in the screen. The call rests on the fitted dose curve; in most records, active means well fitted inhibition curve with a large enough effect; inconclusive means small, poorly fitted or top-dose-only effect; inactive means no such curve, though single readings can be large or run the other way. A potency beside an inconclusive call is a rough fit, not a confirmed value.

Assay: qHTS for Inhibitors of TGF-b; further: nearly all actives have a fitted effect of over 65% in size
Details: HepG2 CAGA-GFP TGF-b/SMAD3 reporter, GFP fluorescence, 18 h, TGF-beta stimulated, 500 pg/mL final; series mostly up to 46.1 µM
Procedure, shortened: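 First, reporter cells (HEPG2 CAGA-GFP) rested 2 h at 37 degrees C. Next, compounds were pinned in and TGF-beta added to 500 pg/mL final. After 18 h, GFP was imaged per cell and summed per well.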
Potency means the concentration at half of the fitted maximal effect; tags describe the fitted curve by direction and shape.

SMILES	Potency
CSCC[C@H](NC(=O)OC(C)(C)C)c1nnc(SCc2cccc(F)c2)o1	inconclusive: 0.501 µM [inhibitor, full curve, poor fit]
C=CCn1c(CNc2ccccc2)nnc1SCC(=O)N/N=C/c1ccccc1O	inconclusive: 5.62 µM [inhibitor, full curve, poor fit]
COCCN=C1N[C@@H](c2ccc(Br)cc2)C(C(=O)OC)=C(C)N1Cc1ccccc1	active: 10 µM
CCOC(=O)c1cc(-c2ccccc2)sc1NC(=O)C(C)N1C(=O)c2ccccc2C1=O (stereo not drawn)	inactive
CN(C[C@H](Cc1ccccc1)N(C[C@H](Cc1ccccc1)N(CC1(c2ccccc2)CC1)N=O)N=O)N=O	inactive
O=C(C[n+]1cc(-c2ccc(F)cc2)n2c1CCC2)N1c2ccccc2Sc2ccccc21	inconclusive: 35.5 µM [inhibitor, single point]
O=C(Cn1nnc2ccccc21)NCc1ccccc1	inconclusive: 0.447 µM [inhibitor, full curve, poor fit]
Cc1csc(NC(=O)CSc2nnc(NC(=O)NC(C)(C)C)s2)n1	inconclusive: 0.708 µM [inhibitor, full curve, poor fit]
S=c1[nH]ncn1/N=C/c1cccs1	inconclusive: 5.62 µM [inhibitor, single point]
Cc1ccc(N2CCN(C(=O)c3cccc([N+](=O)[O-])c3)CC2)cc1Cl	inconclusive: 22.4 µM [inhibitor, single point]
Cc1cc(C(c2ccc(O)cc2)c2cc(C)c(O)cc2C)c(C)cc1O	inconclusive: 35.5 µM [inhibitor, single point]
COc1cccc(N2CCN(C(=O)Cn3c(-c4cccs4)cc4ccccc43)CC2)c1	inconclusive: 15.8 µM [inhibitor, partial curve, poor fit]
Cc1ccccc1N1CCN(CCN2C(=O)CC(=C3c4ccccc4-c4ccccc43)C2=O)CC1	inconclusive: 6.31 µM [inhibitor, single point]
CNC(=O)c1sc(-c2cccs2)nc1C	inactive
CCSc1nnc(NC(=O)NC(C)(C(F)(F)F)C(F)(F)F)s1	inconclusive: 20 µM [inhibitor, single point]
CC1(C(=O)Nc2cccc3cccnc23)CCN1Cc1ccccc1OC(F)F (stereo not drawn)	inconclusive: 35.5 µM [inhibitor, single point]
O=C(Nc1ccc(-c2cn3cccnc3n2)cc1)c1cc(Br)ccc1Cl	inconclusive: 17.8 µM [inhibitor, single point]
COc1ccc(CCNC(=O)c2cc(-c3ccc(Cl)c(Cl)c3)oc2C)cc1	inactive
